# The other results are listed elsewhere or left out.
# Columns and labels:
# [1] = tested on: HSkMC (human skeletal muscle cells); test: cytotoxicity call (relative viability < 0.9); conditions: 10 µM
# [2] = tested on: S. aureus RN4220; test: growth inhibition call (relative growth <= 0.2); conditions: 50 µM
SMILES,cytotoxicity call [1],growth inhibition call [2]
COc1ccc(C#Cc2cnc3c(c2)C(=O)N([C@@H](C)CO)C[C@H](C)[C@H](CN(C)C(=O)CC2CC2)O3)cc1,inactive,inactive
C[C@@H]1CN([C@@H](C)CO)C(=O)c2cc(NC(=O)Nc3cccc4ccccc34)ccc2O[C@H]1CN(C)S(=O)(=O)c1ccc(Cl)cc1,inactive,inactive
O=C(O)c1cc(O)c2cccc(O)c2n1,inactive,inactive
O=C([C@@H]1N[C@@H]2c3ccc(-c4ccc(F)cc4)c(=O)n3C[C@@H]2[C@H]1CO)N1CCOCC1,inactive,inactive
C[C@@H]1CN([C@H](C)CO)C(=O)c2cccc(NC(=O)C3CCOCC3)c2O[C@@H]1CN(C)Cc1ccncc1,inactive,inactive
COc1ccc2c(c1)c(CC(=O)OCC(=O)O)c(C)n2C(=O)c1ccc(Cl)cc1,inactive,inactive
C[C@@H]1CCCCO[C@@H](CN(C)S(C)(=O)=O)[C@@H](C)CN([C@@H](C)CO)C(=O)c2cc(N(C)C)ccc2O1,inactive,inactive
C[C@H]1CCCCO[C@H](CN(C)C(=O)CCC(F)(F)F)[C@@H](C)CN([C@@H](C)CO)C(=O)c2cc(NS(=O)(=O)c3ccc(F)cc3)ccc2O1,inactive,inactive
C[C@H]1CN([C@@H](C)CO)C(=O)c2cc(NC(=O)CCN3CCOCC3)ccc2O[C@@H]1CN(C)C(=O)Nc1ccc2c(c1)OCO2,inactive,inactive
COC(=O)N[C@H](C(=O)N1CC2(CC2)C[C@H]1c1nc(-c2ccc3c(c2)C(F)(F)c2cc(-c4ccc5nc([C@@H]6[C@H]7CC[C@H](C7)N6C(=O)[C@@H](NC(=O)OC)C(C)C)[nH]c5c4)ccc2-3)c[nH]1)C(C)C,inactive,inactive
O=C(C[C@@H]1C[C@H]2c3cc(NS(=O)(=O)c4ccccc4)ccc3O[C@H]2[C@H](CO)O1)NCC(F)(F)F,inactive,inactive
COCCCOc1ccnc(CS(=O)c2nc3ccccc3[n-]2)c1C.[Na+] (stereo not given),inactive,inactive
C[C@@H]1CCCCO[C@H](CN(C)C(=O)Nc2ccc(C(F)(F)F)cc2)[C@@H](C)CN([C@H](C)CO)C(=O)c2cc(NC(=O)CCC(F)(F)F)ccc2O1,inactive,inactive
Cc1ccc(-c2ccc3c(c2)O[C@@H](CN(C)C(=O)Nc2ccc(C(F)(F)F)cc2)[C@@H](C)CN([C@@H](C)CO)S3(=O)=O)cc1,inactive,inactive
Cc1noc(C)c1S(=O)(=O)Nc1ccc2c(c1)C(=O)N([C@@H](C)CO)C[C@@H](C)[C@H](CN(C)Cc1ccccc1)OCCCC[C@H](C)O2,inactive,inactive
CC(CCC(=O)NCC(=O)O)C1CCC2C3C(O)CC4CC(O)CCC4(C)C3CC(O)C12C (stereo not given),inactive,inactive
C[C@@H]1CCCCO[C@@H](CN(C)C(=O)Nc2ccc(C(F)(F)F)cc2)[C@H](C)CN([C@@H](C)CO)C(=O)c2cc(NS(=O)(=O)c3ccc(Cl)cc3)ccc2O1,inactive,inactive
O=C(CN1CCOCC1)N[C@@H]1CC[C@H](CCn2cc(C3CCCC3)nn2)O[C@@H]1CO,inactive,inactive
C=CCOC(=O)[C@H]1[C@@H]2C(=O)O[C@@H](c3ccccc3)[C@@H](c3ccccc3)N2[C@@H](c2ccc(OCCOC(=O)[C@H]3C[C@H]4C(=O)N[C@@H](CCCC[N+](C)(C)C)C(=O)N4[C@H]3c3ccc(O)cc3)cc2)[C@]12C(=O)Nc1ccc(I)cc12,inactive,inactive
Cc1ccc(S(=O)(=O)Nc2ccc3c(c2)CC(=O)N([C@@H](C)CO)C[C@@H](C)[C@H](CN(C)Cc2ccc(-c4ccccc4)cc2)O3)cc1,inactive,inactive
COc1ccc(-c2cn3cc(C(=O)NCC(N)=O)nc3c(=O)n2CC2CC2)c(F)c1,inactive,inactive
C[C@H](CO)N1C[C@H](C)[C@@H](CN(C)Cc2ccc3c(c2)OCO3)OCCCC[C@H](C)Oc2ccc(NC(=O)Nc3ccc4c(c3)OCO4)cc2C1=O,inactive,inactive
C=CCOC(=O)[C@H]1[C@@H]2C(=O)O[C@@H](c3ccccc3)[C@@H](c3ccccc3)N2[C@@H](c2ccc(OCCOC(=O)[C@H]3C[C@H]4C(=O)N[C@@H](Cc5ccccc5)C(=O)N4[C@H]3c3ccc(O)cc3)cc2)[C@]12C(=O)Nc1ccc(I)cc12,inactive,inactive
CC[C@H](C(=O)O)N1CCCC1,inactive,inactive
C[C@@H]1CN([C@@H](C)CO)C(=O)Cc2cc(NC(=O)CCCN(C)C)ccc2O[C@H]1CN(C)S(=O)(=O)c1ccc(Cl)cc1,inactive,inactive
